Assay results reported in the antibiotic and cytotoxicity screens of Wong et al. (2023).
The list shows a part of the results.

What was measured:
[1] = system: HSkMC (human skeletal muscle cells); test: cytotoxicity call (relative viability < 0.9); settings: 10 µM
[2] = system: HepG2; test: cytotoxicity call (relative viability < 0.9); settings: 10 µM
[3] = system: S. aureus RN4220; test: growth inhibition call (relative growth <= 0.2); settings: 50 µM

C[C@H](CO)N1C[C@H](C)[C@H](CN(C)C(=O)Nc2ccc3c(c2)OCO3)Oc2c(NC(=O)C3CC3)cccc2C1=O
inactive: cytotoxicity call [1] | cytotoxicity call [2] | growth inhibition call [3]

C[C@H]1CCCCO[C@@H](CN(C)C(=O)c2ccccc2)[C@@H](C)CN([C@@H](C)CO)C(=O)c2cc(NC(=O)CCC(F)(F)F)ccc2O1
inactive: cytotoxicity call [1] | cytotoxicity call [2] | growth inhibition call [3]

C[C@@H]1CN([C@@H](C)CO)C(=O)c2cc(NC(=O)CCC(F)(F)F)ccc2O[C@@H]1CN(C)Cc1ccc(Cl)c(Cl)c1
inactive: cytotoxicity call [1] | cytotoxicity call [2] | growth inhibition call [3]

C[C@H]1CCCCO[C@H](CN(C)C(=O)Cc2ccccc2)[C@@H](C)CN([C@@H](C)CO)C(=O)c2cc(NC(=O)CCC(F)(F)F)ccc2O1
inactive: cytotoxicity call [1] | cytotoxicity call [2] | growth inhibition call [3]

Cc1ccc(S(=O)(=O)N(C)C[C@H]2Oc3ccc(NC(=O)CCCN(C)C)cc3C(=O)N([C@H](C)CO)C[C@@H]2C)cc1
inactive: cytotoxicity call [1] | cytotoxicity call [2] | growth inhibition call [3]

C[C@@H]1CN([C@@H](C)CO)C(=O)c2cc(C#CC3(O)CCCC3)cnc2O[C@H]1CN(C)C(=O)Cc1ccccc1
inactive: cytotoxicity call [1] | cytotoxicity call [2] | growth inhibition call [3]

O=C(O)CC[C@H](NC(=O)CCn1nnc2ccccc2c1=O)C(=O)O
inactive: cytotoxicity call [1] | cytotoxicity call [2] | growth inhibition call [3]

CCN1[C@@H]2O[C@@H]3O[C@H]4[C@H](O[C@H]3O[C@@H]2N(CC)S1(=O)=O)N(CC)S(=O)(=O)N4CC
inactive: cytotoxicity call [1] | cytotoxicity call [2] | growth inhibition call [3]
